Data reported in the supplement of paper PMC10126150.
Sequences with one replicate were seen in a single cluster, so their values are uncertain.

System: ATP
Experiment: switch fluorescence ratio, 500 uM ATP over buffer (Cy3 cluster intensity, sum of 5 cycles each) (fold (ratio)); higher = stronger signal-on switching upon ATP binding; sequences stand for … in TCGTCGGCAGCGTCAGATGTGTATAAGAGACAGTTTTTTTTTTTTTTTTTTTTTTTTT…TC
Conditions: aptamer strand: ATP DNA aptamer (quencher-CACCTGGGGGAGTATTGCGGAGGAAGG + anchor), 100 nM annealed; ATP concentration: 500 uM; one replicate
Procedure, shortened: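 Between each of five buffer/ATP cycles, the flow-cell was stripped with NaOH and re-annealed. Each cycle imaged Cy3-labelled switching-strand clusters, annealed to 100 nM quencher-labelled ATP aptamer on a modified Illumina MiSeq flow-cell, first in selection buffer and then after 15 min with 500 uM ATP at 22 °C. The fluorescence ratio is summed target-cycle over summed buffer-cycle Cy3 intensity per cluster, averaged per switch-domain sequence, with clusters outside 100-1000 RFU excluded.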
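Also: ATP exposure 15 min at 22 °C before imaging.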

Sequence | switch fluorescence ratio
TTACGGCGCG | 0.985
GCGCTTATGA | 1.04
GAAAACGGCG | 1.02
GCTCCAATAG | 5.6
GCCCTTCTAG | 0.983
TCTAGTTTTT | 1.01
CCGGGGAGTT | 0.984
TGTTAATCAT | 1.01
TTCATCCTGG | 1.04
AAAGTTAGT | 1.01
ACCAAGGGAA | 1.02
ACATGTGGGC | 0.986
CAATAGTACA | 1.02
TTTTCCTATC | 0.951
CGGCTTCTTG | 1
ATCAAGAAAC | 1.04
GCATAGTGGA | 1.01
TCGTGGATAC | 2.54
GTACCAGGTA | 1.04
GATCCTGAAG | 1
CTAGGACTGT | 0.998
TCTGTCAT | 0.996
CAGTAGGCG | 0.99
TGCGCCACGT | 1.03
GATGTGGGCC | 1.03
CTGATTAAAT | 1.01

Sequence | switch fluorescence ratio
GTCGTGGGGG | 0.989
TGGACTATGG | 0.994
GTTGTCTACG | 0.972
AGTGGGTCGT | 0.982
AAATATAAAT | 0.983
AACATTGGGT | 1.02
TGCTCGTTT | 1.06
GGTATCGTTT | 0.98
AGGGCAGAAC | 1
CAAGGAAC | 0.99
TGCGGTATTG | 1.02
GTTCTACGTT | 1
ACGTAATCTG | 1.17
ACCACTCTTG | 1.04
CGCCTTGCAA | 2.49
TAGGAAATAA | 1.04
GTTCGAGAAT | 0.989
TCTGATTAAT | 1.02
TTCCCTCTAT | 1.01
GGCCAACGTT | 1.01
TAGCGGACCA | 1.04
CTTATAACGG | 0.968
ACCAAAATCG | 1.07
ATGTATAGCT | 1.06
AGAGGTTTCA | 1.01
AATGCAGGTC | 1.02

Sequence | switch fluorescence ratio
CGTCAGTCCT | 1.03
CAAACGTCAA | 3.53
CATCCACCGC | 3.81
AACCAATATC | 1.77
CCTATTAATT | 0.998
GTTATACACC | 1.18
TATGTCGACG | 1.02
CCGGAAAGAC | 2.54
AAACGAGGCA | 1.03
ATTCAGCGAG | 0.966
AAATTGGAAT | 0.977
CAAACGCGGA | 1.31
TACTTACGAG | 1.05
AAAGTCGGAG | 0.95
TATAGCAAAA | 1.07
TATCCTGGAA | 1.05
GTTTAATCGA | 1.01
TTAATAAGCA | 1.03
CCGGGATTGT | 1.02
TCAATTGGCG | 1.03
ACGGGATCAA | 1
AACCAAATAG | 1.09
AAGTGTGAA | 0.971
GCTATCAAGA | 1
GGTTTACGAT | 1.02
CGAAAGCATA | 2.12

Sequence | switch fluorescence ratio
ATTTCCCACT | 1.02
TAGAAGTCCG | 0.967
CGGACTATCA | 0.981
TAAGTGGCGT | 0.969
ATAAGCGAGA | 1.04
GTTGAATCGT | 0.988
AATCAGACAA | 1
AGTGGCGGGC | 1
ACGATGGGAA | 0.97
GTGGGGGCAC | 1.1
GTTAGATGCC | 0.993
GGAACAGACA | 1.07
CCGGAAGTGT | 1.07
GACCATCCGA | 1.37
GCGGGTGATG | 1.01
ATTGCCTAGG | 1.04
CGTCTAAGTT | 0.965
TAAGTGTAAT | 0.993
CGGATGATTC | 0.965
ATCACGCTTA | 1.22
GAACCATCCT | 1.6
TATCGTAGTT | 1.01
CTGGAGCTCA | 2.48
TACCACAGGC | 1.13
GCGTGCAATT | 0.99
ACACACCAGC | 1.15

Sequence | switch fluorescence ratio
GTTTCATTGG | 1.03
ACGAGAGGCT | 0.936
TGTATACGTG | 1.01
TTCGCGTTCA | 0.997
AGCAGTGAAG | 0.988
TTATAGAGAG | 0.991
AGTGAACGTG | 1.01
CCGGATGCGT | 1.15
AAGAGGCACT | 1
CGCAACCTAG | 2.14
TAAAGTAACC | 0.997
CCTCTTGGAT | 1.62
TAAAGTAGG | 1.03
AGTTCATT | 0.97
AATGAGCCCG | 1.13
TATGATACCT | 1.29
ACATTGCTTC | 0.999
TATTCCCTAA | 1.06
CTTATCATTT | 0.993
AGGAAGCCGT | 0.959
TCCCCGATGT | 1.17
CACGCCATTT | 1.13
ACATGGTCGA | 0.996
TATTTGGAC | 1.02
TTTGTTAGTA | 0.991
TCATTGACCG | 1.02

Sequence | switch fluorescence ratio
CACGGCCTAA | 0.979
TTGCCCACA | 1.02
AAACAGCAAG | 1.05
GTGGTAAATC | 0.998
GCGTCTAACA | 0.97
TTGATTGAGC | 0.984
GCGGAGGCCC | 1.02
GGTAATATAT | 1.01
TTATATGTCG | 1.06
CAACCGACCG | 1.64
AAAGATATA | 0.942
CTGACATTCT | 1.05
TACACATGGC | 1.01
GAACATAGCG | 0.999
TTGAAGAGGA | 0.95
CGGACATATC | 1.17
GGTTTCAATC | 1
CGGAGGTC | 1.12
TGGTATACGG | 0.993
TGTATTGGGG | 1.04
GAAGTATGAG | 1.06
CGCGGTTCGA | 1.04
ATTAATTGAG | 1.02
ATGATCTCAG | 0.989
AAGTAATATC | 1.32
GGGTCGTGTG | 0.963

Sequence | switch fluorescence ratio
AGTACCGGTC | 1.31
CATTGTGGT | 0.985
CAGACTGT | 0.987
TATCGCTCCG | 1.07
TCGAAGATCG | 1.02
GTGTATTGAC | 1
ATGATTAGCG | 0.98
CGAATATGGG | 0.964
CGGCACTTGC | 1.07
TACGAGGTC | 1.02
GCTAGAATAC | 1.72
CGAATGCT | 1.01
ACGGCTACGT | 0.999
TGTTTTGGCC | 0.99
TATCGGCTCT | 0.946
AGCCGACTAC | 1.25
CCTCAATTGG | 1.33
GATTAACAC | 1.06
TGGGGGTCTC | 1.02
ACAACCGCCG | 1.25
ACTCGTTCTT | 0.985
CGCTGTGCT | 1.12
ACACCTTCCC | 3.01
ATGTGCCTTC | 1.03
GCCGGCGCTG | 1
CTGCATATTT | 1.16

Sequence | switch fluorescence ratio
AACCCGAGAG | 1.05
GTAGTTCCGA | 1.03
GAATGCCAGG | 1.05
TTCGACGTGT | 0.984
CCCATAGATT | 1.01
TGCCGGGCGA | 1.04
ATTTGTCTTA | 0.958
TGGGGAGTAG | 0.962
AGCACCCAAT | 1.06
TAATCCCGCT | 1.02
ACCGGATTGG | 1.04
CACATTCACT | 1.12
ATCATATGAC | 1
TTTTCCTCAT | 1.06
CTGGGGAATA | 1.04
GAGGGCGATG | 0.969
CGATACCGAC | 1.25
TCTCCAGCCT | 1.56
TAGACGAGGA | 0.858
